Some test systems named below: DLD-1 colon; K-562 leukemia; KM20L2 colon; LOX IMVI melanoma; LXFL 529 NSCLC; M19-MEL melanoma; MOLT-4 leukemia; NCI/ADR-RES ovarian; OVCAR-5 ovarian; RXF-631 renal; SF-268 CNS; SW-620 colon; BT-549 breast; DU-145 prostate; HOP-62 NSCLC; M14 melanoma; NCI-H460 lung; PC-3 prostate; RXF 393 renal; SF-295 CNS; SF-539 CNS; SK-MEL-2 melanoma; DMS 114 small cell lung; DMS 273 small cell lung; HOP-92 NSCLC; HT29 colon; MALME-3M melanoma; NCI-H23 lung; SK-OV-3 ovarian; SNB-75 CNS; U251 CNS; UACC-62 melanoma; XF 498 CNS; MDA-MB-231 breast; RPMI-8226 leukemia; MDA-MB-435; A498 renal; COLO 205 colon; HL-60(TB) leukemia; KM12 colon; MCF7 breast; NCI-H522 lung; OVCAR-3 ovarian; SK-MEL-28 melanoma; SK-MEL-5 melanoma; SR leukemia.

What all share (test): growth of human tumour cells (NCI), 48 h

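1) Cells in 96-well plates. 2) Compound, 48 h, 5 concentrations. 3) Linear interpolation between surrounding doses. 4) Unreached endpoint = highest concentration. GI50: concentration for 50% inhibition of growth.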 The source holds more than one record for some entries. This is not the full list of results. An entry can have further records. For some of these results: Values given together repeat one measurement across runs, samples, wells, individuals or studies. Marks in square brackets tell the records apart. Letters count within one entry.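 Definition used: TGI = concentration required for complete inhibition of growth.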 For some of these results: The tests behind the records often covered other concentration ranges, not given here; a value can be the end of its range.

In the case of `COC(=O)[C@@]12OC[C@]34[C@H]([C@@H](O)[C@@H]1O)[C@@]1(C)CC(=O)C(O)=C(C)[C@@H]1C[C@H]3OC(=O)[C@H](OC(=O)/C=C(\C)C(C)C)[C@@H]24`, the TGI was 5.16 nM and 107 nM with DLD-1 colon; 20.1 nM and 735 nM with K-562 leukemia; 0.753 nM and 118 nM in the assay on KM20L2 colon; 2 nM, 3.59 nM, 25.8 nM in the assay on LOX IMVI melanoma; 0.47 nM and 76.2 nM in the assay with LXFL 529 NSCLC; 0.521 nM and 21.2 nM in the assay with M19-MEL melanoma. Further, the TGI in the assay on MOLT-4 leukemia was 0.76 nM, 6.92 nM, 590 nM; in the assay with NCI/ADR-RES ovarian, 90.3 nM, 9.62 µM, 4.4 µM; in the assay with OVCAR-5 ovarian, 1.47 nM, 35.2 nM, 61.9 nM; in the assay with RXF-631 renal, 2.27 nM and 23.7 nM; in the assay with SF-268 CNS, 41.9 nM, < 13.4 nM, 215 nM; with SW-620 colon, 27.5 nM, < 10.4 nM, 1.31 µM.
As to `CCCC(=O)Nc1cc(C(=O)N2C[C@H]3C[C@@]34C2=CC(=O)c2[nH]cc(C)c24)n(COC)c1`, the TGI in the assay on BT-549 breast was 11 µM and 520 nM; in the assay with DU-145 prostate it was 1.05 µM and 11 µM; in the assay on HOP-62 NSCLC, 12.4 µM and 352 nM; in the assay on M14 melanoma it was 8.39 µM and 394 nM; in the assay on MOLT-4 leukemia it was 52.7 nM and 18.2 µM; with NCI-H460 lung, 3.97 µM and 381 nM. In addition, the TGI in the assay on PC-3 prostate was 50 µM and 414 nM; in the assay on RXF 393 renal it was 39.4 µM and 224 nM; in the assay with SF-295 CNS, 6.55 µM and 580 nM; with SF-539 CNS it was 2.81 µM and 273 nM; with SK-MEL-2 melanoma, 50 µM and 257 nM.
As to `CC1[C@@]2(CCC(C)(C)O2)O[C@@H]2C=C3C4CCC5Cc6nc7c(nc6C[C@@]5(C)C4C[C@H](O)[C@@]3(C)[C@]12O)CC1CCC2C3=C[C@H]4O[C@@]5(O[C@@](C)(CO)C[C@@H]5O)C(C)[C@@]4(O)[C@]3(C)[C@@H](O)CC2[C@]1(C)C7` (stereo not given in full), the TGI with DMS 114 small cell lung is 498 nM and 18.2 nM; in the assay with DMS 273 small cell lung, 48.2 nM and 1.47 nM; with HOP-62 NSCLC, 120 nM and 2.34 nM; with HOP-92 NSCLC, 413 nM and 34.1 nM; in the assay with HT29 colon, 489 nM and 37.8 nM; with MALME-3M melanoma, 831 nM and 69.9 nM. Also, the TGI in the assay on MOLT-4 leukemia is 59 nM and 1 µM; with NCI-H23 lung, 787 nM and 38.1 nM; in the assay with OVCAR-5 ovarian, 682 nM and 55.2 nM; in the assay on RXF 393 renal it was 39.8 nM and 0.385 nM; in the assay on SF-295 CNS, 24.4 nM and 0.804 nM; with SK-MEL-2 melanoma, 440 nM and 41.4 nM. The TGI was 323 nM and 19.3 nM in the assay with SK-OV-3 ovarian; 129 nM and 1.99 nM in the assay on SNB-75 CNS; 852 nM and 37.9 nM with U251 CNS; 207 nM and 10.8 nM in the assay with UACC-62 melanoma; 993 nM and 36 nM with XF 498 CNS.
Take `O=c1cc(-c2cccc(OC(F)(F)F)c2)[nH]c2ccc(N3CCCC3)cc12`: the TGI in the assay with K-562 leukemia is 0.525 nM and > 100 µM; with MDA-MB-231 breast, 176 nM and 12.6 µM; with RPMI-8226 leukemia, 0.627 nM and > 100 µM; in the assay on SK-OV-3 ovarian, 331 nM and 24.2 µM.
For the molecule `COc1cc(C(=O)c2cnc(-c3c[nH]c4cccc(C)c34)[nH]2)cc(OC)c1OC`, the TGI in the assay on MDA-MB-231 breast is 316 nM and 35 µM; in the assay with NCI/ADR-RES ovarian it was 96.9 nM and > 100 µM.
Take `CCCCCCCCCCCC/C=C\CC[C@@H](O)[C@H](O)CC[C@H](O)[C@@H]1CC[C@@H](CCCCCCCC2=C[C@H](C)OC2=O)O1`: the TGI was 3.02 µM and 34.1 µM with BT-549 breast; 5.74 µM and 75.2 µM with MDA-MB-435.
Consider `CN(C)CCCN1c2ccccc2Sc2ccc(C(F)(F)F)cc21`, for which the TGI in the assay with A498 renal is 32.2 µM [sample A] and 2.33 µM [sample B]; in the assay on COLO 205 colon, 30.4 µM [sample A] and 34.5 µM [sample B] and 2.67 µM [sample C]; in the assay with HL-60(TB) leukemia, 39.7 µM [sample A] and 36.7 µM [sample B] and 3.73 µM [sample C]; in the assay on HOP-62 NSCLC, 30.4 µM [sample A, 1 test] and > 100 µM [sample B, 1 test] and 2.87 µM [sample C, 1 test]; in the assay with KM12 colon, 29.7 µM [sample A] and 31.1 µM [sample B] and 3.07 µM [sample C]; in the assay on M14 melanoma, 21.6 µM [sample A, 1 test] and > 100 µM [sample B, 1 test] and 3.37 µM [sample C, 1 test]. Besides, the TGI in the assay with MCF7 breast was 32.6 µM [sample A] and 2.95 µM [sample B]; in the assay with MDA-MB-435 it was 30.3 µM [sample A] and 3.03 µM [sample B]; in the assay with NCI-H460 lung it was 29.1 µM [sample A] and 30.8 µM [sample B] and 2.95 µM [sample C]; in the assay with NCI-H522 lung, 34.8 µM [sample A] and 33.7 µM [sample B] and 2.92 µM [sample C]; in the assay on OVCAR-3 ovarian, 27.3 µM [sample A, 1 test] and > 100 µM [sample B, 1 test] and 3.13 µM [sample C, 1 test]; in the assay on RXF 393 renal, 31.7 µM [sample A] and 26.8 µM [sample B] and 2.67 µM [sample C]. Moreover, the TGI is 34.6 µM [sample A] and 28.5 µM [sample B] and 3.44 µM [sample C] in the assay with SF-539 CNS; 28.5 µM [sample A] and 30.5 µM [sample B] and 3.05 µM [sample C] with SK-MEL-28 melanoma; 31.6 µM [sample A] and 2.91 µM [sample B] with SK-MEL-5 melanoma; 30.1 µM [sample A] and 34.3 µM [sample B] and 2.86 µM [sample C] in the assay on SK-OV-3 ovarian; 57.1 µM [sample A] and 40.5 µM [sample B] and 5.7 µM [sample C] in the assay with SR leukemia; 29.3 µM [sample A] and 31.5 µM [sample B] and 2.92 µM [sample C] in the assay on SW-620 colon. Moreover, the TGI in the assay with UACC-62 melanoma was 31.2 µM [sample A] and 30.8 µM [sample B] and 2.79 µM [sample C]. Besides, the GI50 in the assay on HOP-62 NSCLC was 16.1 µM [sample A, 1 test] and > 100 µM [sample B, 1 test] and 1.54 µM [sample C, 1 test]; in the assay on M14 melanoma, 6.08 µM [sample A, 1 test] and > 100 µM [sample B, 1 test] and 1.78 µM [sample C, 1 test]; in the assay on OVCAR-3 ovarian, 13.8 µM [sample A, 1 test] and > 100 µM [sample B, 1 test] and 1.67 µM [sample C, 1 test].

These data come from PubChem BioAssay (NCI).
